The record followed here is patent US20260234738A1.

The labels stand for the following.
B1: mAb10930 (antibody)
heavy: EVQLVESGGGLVQPGRSLRLSCAASGFTFDDYAMYWVRQAPGKGLEWVSGISWNSGSIGYADSVKGRFTISRDNAKNSLYLQMNSLRAADTALYYCAKDKDWNSRGYYYYGMDVWGQGTTVTVSS[human IgG1 constant region left out]
light: [about 100 residues left out][about 100 residues left out]
B2: mAb11010 (antibody)
heavy: QVQLVESGGGVVQPGRSLRLSCAASGFTFSSYGMHWVRQAPGKGLEWVAVISYDGSYKYYADSVKGRFTISRDNSKNTLYLQMNSLRAEDTAVYYCAIDGGTVTTIFDYWGQGTLVTVSS[human IgG1 constant region left out]
light: [about 100 residues left out][about 120 residues left out]
B3: mAb11004 (antibody)
heavy: QVQLVESGGGVVQPGRSLRLSCVASGFTFSIYGMDWVRQAPGKGLEWVAVISYDGSNKYYADSVKGRFTISRDNSKNTLYLQMNSLRPEDTAVYYCAKDREAAADAFDIWGQGTMVTVSS[human IgG1 constant region left out]
light: DIQMTQSPSSVSASVGDRVTITCRASQGISSWLAWYQQKPGKAPKLLIYAASSLHSGVPSRFSGSGSGTDFTLTISSLQPEDFATYYCQQANSFRLTFGGGTKVEIKRTVAAPSVFIFPPSDEQLKSGTASVVCLLNNFYPREAKVQWKVDNALQSGNSQESVTEQDSKDSTYSLSSTLTLSKADYEKHKVYACEVTHQGLSSPVTKSFNRGEC
B4: mAb10964 (antibody)
heavy: QVQLQESGPGLVKPSETLSLTCTVSGGSINNYYWIWIRQPPGKGLEWIGYIYHSGSTNYNPSLKSRVTISVDTSKNQFSLKVSSVTAADTAVYYCANMVRGVYEDDYWGQGTLVTVSS[human IgG1 constant region left out]
light: DIQMTQSPSSLSASVGDRVTITCRASQSISNYLNWYQQKPGKAPKLLIFAASSLRSGVPSRFSGSGSGTDFTLTISSLHPEDFATYYCQQNYNTPLTFGPGTKVDIKRTVAAPSVFIFPPSDEQLKSGTASVVCLLNNFYPREAKVQWKVDNALQSGNSQESVTEQDSKDSTYSLSSTLTLSKADYEKHKVYACEVTHQGLSSPVTKSFNRGEC
B5: mAb10921 (antibody)
heavy: EVQLVESGGGLVQPGGSLRLSCAASGITVSSNYMSWVRQAPGKGLEWVSVIYSGGSTFYADSVKGRFTISRHNSKNTLYLQMNSLRAEDTAVYYCARERNFDAFDIWGQGTMVTVSS[human IgG1 constant region left out]
light: DIQMTQSPSSVSASVGDRVTITCRASQGISSWLAWYQQKPGKAPKLLIYAASSLQSGVPSRFSGSGSGTDFTLTISSLQPEDFATYYCQQANSFPLFTFGPGTKVDIKRTVAAPSVFIFPPSDEQLKSGTASVVCLLNNFYPREAKVQWKVDNALQSGNSQESVTEQDSKDSTYSLSSTLTLSKADYEKHKVYACEVTHQGLSSPVTKSFNRGEC
B6: mAb10920 (antibody)
heavy: QVQLVESGGGVVQPGRSLRLSCAASGFTFSYYGMHWVRQAPGKGLEWVAVIWYDGSNKFYADSVKGRFTISRDNSKNTLYLQMNSLRAEDTAVYYCAAARPGYYYGMDVWGQGTTVTVSS[human IgG1 constant region left out]
light: DIQMTQSPSSLSASVGDRVTITCRASQGISNYLAWFQQKPGKAPNSLIYAASSLQRGVPSKFSGSGSGTDFTLTISSLQPEDFATYYCQQYNSYPRTFGQGTKVEIKRTVAAPSVFIFPPSDEQLKSGTASVVCLLNNFYPREAKVQWKVDNALQSGNSQESVTEQDSKDSTYSLSSTLTLSKADYEKHKVYACEVTHQGLSSPVTKSFNRGEC
B7: mAb10934 (antibody)
heavy: [about 100 residues left out]ARWDWYFDLWGRGTLVTVSS[human IgG1 constant region left out]
light: DIQMTQSPSSLSASVGDRVTITCQASQDIWNYINWYQQKPGKAPKLLIYDASNLKTGVPSRFSGSGSGTDFTFTISSLQPEDIATYYCQQHDDLPPTFGQGTKVEIKRTVAAPSVFIFPPSDEQLKSGTASVVCLLNNFYPREAKVQWKVDNALQSGNSQESVTEQDSKDSTYSLSSTLTLSKADYEKHKVYACEVTHQGLSSPVTKSFNRGEC
B8: mAb10935 (antibody)
heavy: EVQLVESGGGLVQPGGSLRLSCAASGFTVSSNYMSWVRQAPGKGLEWVSLIYSGGSTYYADSVKGRFTISRHNSKNTLYLQMNSLRSEDTAVYYCARVPLGDYYYGMDVWGQGTTVTVSS[human IgG1 constant region left out]
light: B7 light with W30N, N31K, I33L, K55E, H91S, D93N, P96L, Q100G
B9: mAb10966 (antibody)
heavy: EVQLVESGGGLVQPGGSLRLSCAASGLTVSSNYMSWVRQAPGKGLEWVSVIYSGGSTFYADSVKGRFTISRDNSKNTLYLQMNSLRPEDTAVYYCAREGRIAATGYGMDVWGQGTTVTVSS[human IgG1 constant region left out]
light: B7 light with W30S, I33L, K55G, G66R, Q89H, H91Y, D93N, P96Q, Q100P, E105D
B10: mAb10955 (antibody)
heavy: EVQLVESGGGLVQPGGSLRVSCAASGFTVSRNYMSWVRQAPGKGLEWVSVIYSGGSTFYADSVKGRFTISRDNSKNTLYLQMNSLRAEDTAIYYCARYIPRFDPWGQGTLVTVSS[human IgG1 constant region left out]
light: B7 light with W30S, I33L, Y36F, K42R, K55E, H91Y, D93N, P96I, K103R, V104L
B11: mAb10954 (antibody)
heavy: EVQLVESGGGLVQPGGSLRLSCAASGITVSSNYMSWVRQAPGKGLEWVSLIYSGGSTYYADSVKGRFTISRDNSKNTLYLQMNSLRVEDTAVYYCARDHGMAAAGYNYWGQGTLVTVSS[human IgG1 constant region left out]
light: B7 light with W30N, N31K, I33L, K55E, S76N, I83F, Y87F, H91Y, D93N, T97A
B12: mAb10938 (antibody)
heavy: EVQLVESGGGLVQPGGSLRLSCAVSGFTVSSNYMSWVRQAPGKGLEWVSLIYSGGSTFYADSVKGRFTISRHNSKNTLYLQMNSLRAEDTAVYYCAREGGYSYDYNYWGQGTLVTVSS[human IgG1 constant region left out]
light: B7 light with W30R, I33L, K55E, S65I, H91Y, D93N, P96I, K103R, V104L

Numbering of substitutions follows the chain as printed.

The target in this experiment is UNMODIFIED-SARS-CoV-2 Spike Protein (RBD)(R319-F541).mmH (SARS-CoV-2). The experiment is described as follows: Luminex bead binding, antibody supernatant. Particulars: remark: other sources report otherwise.
Regarding B1, the binding signal (MFI) was determined as 29500 MFI.
Under B2 stands 6390 MFI; under B3, 6510 MFI.
B4 gave a binding signal (MFI) of 30000 MFI.
Under B5 stands 31700 MFI; under B6, 35500 MFI; under B7, 33100 MFI.
Under B8 stands 31900 MFI; under B9, 29500 MFI; under B10, 28600 MFI.
In the case of B11, the binding signal (MFI) came out at 28500 MFI.
Regarding B12, the binding signal (MFI) was determined as 34500 MFI.
